# Data published in the supplement of paper PMC8728848.
# Some of the results follow.
# Assays:
# Test in all cases: glycan array binding signal (z-score within array); higher = stronger binding
# Conditions in all cases: glycan notation: IUPAC condensed, linker removed
# [1] = biological target: Fuc(a1-2)Gal6S(b1-3)GlcNAc
# In short: (§1)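 Columns mapping to the same glycan were averaged after glycan names were converted to IUPAC-condensed notation. The data come from 3228 arrays in the Consortium for Functional Glycomics database, limited to those with an available protein sequence. Binding is reported as a within-array Z-score averaged across arrays of one protein sequence and across linkers.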
# [2] = biological target: Fuc(a1-2)Gal6S(b1-3)GlcNAc6S
# In short: as §1
# Fuc(a1-2)Gal6S(b1-4)Glc = biological target: Fuc(a1-2)Gal6S(b1-4)Glc
# In short: as §1
# [3] = biological target: Fuc(a1-2)Gal6S(b1-4)Glc6S
# In short: as §1
# Fuc(a1-2)[Gal(a1-3)]Gal = biological target: Fuc(a1-2)[Gal(a1-3)]Gal
# In short: as §1
# [4] = biological target: Fuc(a1-2)[Gal(a1-3)]Gal(b1-3)GalNAc
# In short: as §1
# [5] = biological target: Fuc(a1-2)[Gal(a1-3)]Gal(b1-3)GalNAc(b1-3)Gal(a1-4)Gal(b1-4)Glc
# In short: as §1
# [6] = biological target: Fuc(a1-2)[Gal(a1-3)]Gal(b1-3)GlcNAc
# In short: as §1
# [7] = biological target: Fuc(a1-2)[Gal(a1-3)]Gal(b1-3)GlcNAc(b1-2)Man(a1-3)[Fuc(a1-2)[Gal(a1-3)]Gal(b1-3)GlcNAc(b1-2)Man(a1-6)]Man(b1-4)GlcNAc(b1-4)GlcNAc
# In short: as §1
# [8] = biological target: Fuc(a1-2)[Gal(a1-3)]Gal(b1-3)GlcNAc(b1-2)Man(a1-3)[Fuc(a1-2)[Gal(a1-3)]Gal(b1-3)GlcNAc(b1-2)Man(a1-6)]Man(b1-4)GlcNAc(b1-4)[Fuc(a1-6)]GlcNAc
# In short: as §1
# [9] = biological target: Fuc(a1-2)[Gal(a1-3)]Gal(b1-3)GlcNAc(b1-3)GalNAc
# In short: as §1
# [10] = biological target: Fuc(a1-2)[Gal(a1-3)]Gal(b1-3)GlcNAc(b1-6)GalNAc
# In short: as §1
# [11] = biological target: Fuc(a1-2)[Gal(a1-3)]Gal(b1-4)Glc
# In short: as §1
# [12] = biological target: Fuc(a1-2)[Gal(a1-3)]Gal(b1-4)GlcNAc
# In short: as §1
# [13] = biological target: Fuc(a1-2)[Gal(a1-3)]Gal(b1-4)GlcNAc(b1-2)Man
# In short: as §1
# [14] = biological target: Fuc(a1-2)[Gal(a1-3)]Gal(b1-4)GlcNAc(b1-2)Man(a1-3)[Fuc(a1-2)[Gal(a1-3)]Gal(b1-4)GlcNAc(b1-2)Man(a1-6)]Man(b1-4)GlcNAc(b1-4)GlcNAc
# In short: as §1
# [15] = biological target: Fuc(a1-2)[Gal(a1-3)]Gal(b1-4)GlcNAc(b1-2)Man(a1-3)[Fuc(a1-2)[Gal(a1-3)]Gal(b1-4)GlcNAc(b1-2)Man(a1-6)]Man(b1-4)GlcNAc(b1-4)[Fuc(a1-6)]GlcNAc
# In short: as §1
# [16] = biological target: Fuc(a1-2)[Gal(a1-3)]Gal(b1-4)GlcNAc(b1-3)GalNAc
# In short: as §1
# [17] = biological target: Fuc(a1-2)[Gal(a1-3)]Gal(b1-4)GlcNAc(b1-3)[Fuc(a1-2)[Gal(a1-3)]Gal(b1-4)GlcNAc(b1-6)]GalNAc
# In short: as §1
# [18] = biological target: Fuc(a1-2)[Gal(a1-3)]Gal(b1-4)GlcNAc(b1-6)GalNAc
# In short: as §1
# [19] = biological target: Fuc(a1-2)[Gal(a1-3)]Gal(b1-4)[Fuc(a1-3)]Glc
# In short: as §1
# [20] = biological target: Fuc(a1-2)[Gal(a1-3)]Gal(b1-4)[Fuc(a1-3)]GlcNAc
# In short: as §1
# [21] = biological target: Fuc(a1-2)[Gal(a1-3)]Gal(b1-4)[Fuc(a1-3)]GlcNAc(b1-3)GalNAc
# In short: as §1
# [22] = biological target: Fuc(a1-2)[Gal(a1-4)]Gal(b1-4)GlcNAc
# In short: as §1
# [23] = biological target: Fuc(a1-2)[GalNAc(a1-3)]Gal
# In short: as §1
# [24] = biological target: Fuc(a1-2)[GalNAc(a1-3)]Gal(b1-3)GalNAc(a1-3)[Fuc(a1-2)]Gal(b1-4)GlcNAc
# In short: as §1
# [25] = biological target: Fuc(a1-2)[GalNAc(a1-3)]Gal(b1-3)GalNAc(b1-3)Gal(a1-4)Gal(b1-4)Glc
# In short: as §1
# [26] = biological target: Fuc(a1-2)[GalNAc(a1-3)]Gal(b1-3)GlcNAc
# In short: as §1
# [27] = biological target: Fuc(a1-2)[GalNAc(a1-3)]Gal(b1-3)GlcNAc(b1-2)Man(a1-3)[Fuc(a1-2)[GalNAc(a1-3)]Gal(b1-3)GlcNAc(b1-2)Man(a1-6)]Man(b1-4)GlcNAc(b1-4)GlcNAc
# In short: as §1
# [28] = biological target: Fuc(a1-2)[GalNAc(a1-3)]Gal(b1-3)GlcNAc(b1-2)Man(a1-3)[Fuc(a1-2)[GalNAc(a1-3)]Gal(b1-3)GlcNAc(b1-2)Man(a1-6)]Man(b1-4)GlcNAc(b1-4)[Fuc(a1-6)]GlcNAc
# In short: as §1
# [29] = biological target: Fuc(a1-2)[GalNAc(a1-3)]Gal(b1-3)GlcNAc(b1-3)GalNAc
# In short: as §1
# [30] = biological target: Fuc(a1-2)[GalNAc(a1-3)]Gal(b1-3)GlcNAc(b1-6)GalNAc
# In short: as §1
# [31] = biological target: Fuc(a1-2)[GalNAc(a1-3)]Gal(b1-4)Glc
# In short: as §1
# [32] = biological target: Fuc(a1-2)[GalNAc(a1-3)]Gal(b1-4)GlcNAc
# In short: as §1
# [33] = biological target: Fuc(a1-2)[GalNAc(a1-3)]Gal(b1-4)GlcNAc(b1-2)Man
# In short: as §1
# [34] = biological target: Fuc(a1-2)[GalNAc(a1-3)]Gal(b1-4)GlcNAc(b1-2)Man(a1-3)[Fuc(a1-2)[GalNAc(a1-3)]Gal(b1-4)GlcNAc(b1-2)Man(a1-6)]Man(b1-4)GlcNAc(b1-4)GlcNAc
# In short: as §1
# [35] = biological target: Fuc(a1-2)[GalNAc(a1-3)]Gal(b1-4)GlcNAc(b1-2)Man(a1-3)[Fuc(a1-2)[GalNAc(a1-3)]Gal(b1-4)GlcNAc(b1-2)Man(a1-6)]Man(b1-4)GlcNAc(b1-4)[Fuc(a1-6)]GlcNAc
# In short: as §1
# [36] = biological target: Fuc(a1-2)[GalNAc(a1-3)]Gal(b1-4)GlcNAc(b1-3)Gal(b1-4)GlcNAc
# In short: as §1
# [37] = biological target: Fuc(a1-2)[GalNAc(a1-3)]Gal(b1-4)GlcNAc(b1-3)Gal(b1-4)GlcNAc(b1-3)Gal(b1-4)GlcNAc
# In short: as §1
# [38] = biological target: Fuc(a1-2)[GalNAc(a1-3)]Gal(b1-4)GlcNAc(b1-3)GalNAc
# In short: as §1
# [39] = biological target: Fuc(a1-2)[GalNAc(a1-3)]Gal(b1-4)GlcNAc(b1-3)[Fuc(a1-2)[GalNAc(a1-3)]Gal(b1-4)GlcNAc(b1-6)]GalNAc
# In short: as §1
# [40] = biological target: Fuc(a1-2)[GalNAc(a1-3)]Gal(b1-4)GlcNAc(b1-6)GalNAc
# In short: as §1
# [41] = biological target: Fuc(a1-2)[GalNAc(a1-3)]Gal(b1-4)[Fuc(a1-3)]GlcNAc
# In short: as §1
# [42] = biological target: Fuc(a1-2)[GalNAc(a1-3)]Gal(b1-4)[Fuc(a1-3)]GlcNAc(b1-3)GalNAc
# In short: as §1
# [43] = biological target: Fuc(a1-2)[GalNAc(a1-4)]Gal(b1-4)GlcNAc
# In short: as §1
binder,measurement,setting,value
"Epa9 (Candida glabrata), CAGL0A01386g (protein) MGSSHHHHHHSSGLVPRGSHMDITPFAHYPRPEGCSSPPNAVSVGLHMDLYNYPYLYVKNPRTGFTNDTDSDADGETDGDSAGGIEGRAGQCWNPEYQDPNFPRYGYKKYGSFGSSDHVNGKISWDHNEFKEGCKPIMARLPTAYNYPAKITFSNFTMVLSGYFKPKSTGLYKFEIHADDFILFNFGSKNAFECCNREESIDNFGPYVAYAMWPNEADQELEVYLFEDSYYPIRLFYNNRDYHSKFMVGFYPPNTEEITYDFDGYLYMLDDTGNECKDSIRYKTVCDD",glycan array binding signal (z-score),[1],-0.444
same,glycan array binding signal (z-score),[2],-0.417
same,glycan array binding signal (z-score),Fuc(a1-2)Gal6S(b1-4)Glc,-0.462
same,glycan array binding signal (z-score),[3],-0.459
same,glycan array binding signal (z-score),Fuc(a1-2)[Gal(a1-3)]Gal,-0.137
same,glycan array binding signal (z-score),[4],-0.34
same,glycan array binding signal (z-score),[5],-0.371
same,glycan array binding signal (z-score),[6],-0.32
same,glycan array binding signal (z-score),[7],-0.172
same,glycan array binding signal (z-score),[8],-0.391
same,glycan array binding signal (z-score),[9],-0.363
same,glycan array binding signal (z-score),[10],-0.415
same,glycan array binding signal (z-score),[11],-0.338
same,glycan array binding signal (z-score),[12],0.07
same,glycan array binding signal (z-score),[13],-0.056
same,glycan array binding signal (z-score),[14],0.041
same,glycan array binding signal (z-score),[15],-0.319
same,glycan array binding signal (z-score),[16],-0.304
same,glycan array binding signal (z-score),[17],-0.079
same,glycan array binding signal (z-score),[18],-0.507
same,glycan array binding signal (z-score),[19],-0.424
same,glycan array binding signal (z-score),[20],-0.364
same,glycan array binding signal (z-score),[21],-0.382
same,glycan array binding signal (z-score),[22],3.27
same,glycan array binding signal (z-score),[23],-0.462
same,glycan array binding signal (z-score),[24],-0.409
same,glycan array binding signal (z-score),[25],-0.448
same,glycan array binding signal (z-score),[26],-0.462
same,glycan array binding signal (z-score),[27],-0.465
same,glycan array binding signal (z-score),[28],-0.47
same,glycan array binding signal (z-score),[29],-0.341
same,glycan array binding signal (z-score),[30],-0.517
same,glycan array binding signal (z-score),[31],-0.43
same,glycan array binding signal (z-score),[32],-0.469
same,glycan array binding signal (z-score),[33],-0.495
same,glycan array binding signal (z-score),[34],-0.421
same,glycan array binding signal (z-score),[35],-0.455
same,glycan array binding signal (z-score),[36],-0.467
same,glycan array binding signal (z-score),[37],0.043
same,glycan array binding signal (z-score),[38],-0.482
same,glycan array binding signal (z-score),[39],-0.41
same,glycan array binding signal (z-score),[40],-0.402
same,glycan array binding signal (z-score),[41],-0.423
same,glycan array binding signal (z-score),[42],-0.237
same,glycan array binding signal (z-score),[43],-0.456
